This is one part of the list. Each Rep nickase domain was tested in vitro on the same pool of single strands at 3 µM enzyme and 37 °C for 1 h; the strands have 90 letters, of which the middle is given. Uncut reads are compared with the no-enzyme pool on a log2 scale; the lower, the more was cut; hits are not called. Shares of all reads are compared; where an enzyme cuts many sequences, the uncut ones exceed 0.

In this assay the test system is T1, Rep nickase domain of tomato golden mosaic virus.
T1 sequence (residues 1-124 of Rep, tag left off): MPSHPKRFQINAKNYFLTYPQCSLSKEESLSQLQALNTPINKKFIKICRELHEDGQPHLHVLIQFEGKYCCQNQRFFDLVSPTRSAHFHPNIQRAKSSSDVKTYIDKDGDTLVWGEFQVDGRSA
Kind of assay: uncleaved DNA left, log2 of reads against the no-enzyme library (log2 ratio); higher = less cleavage (more negative = more Rep cleavage of the k-mer); sequences stand for … in CTCGTCCG…ACCGGAGA
The procedure: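 A pool of 90-nt single-stranded DNAs with seven random bases just before the constant AC of the nick site (name = the seven bases) was cut by 3 µM recombinant His6-SUMO-tagged Rep nickase domain (300 nM DNA, 50 mM HEPES pH 8.0, 50 mM NaCl, 1 mM MnCl2, 1 h, 37 °C, three replicates). Uncut DNA was amplified and sequenced.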
Consider CGTGAGC, for which the “uncleaved DNA left (log2)” value was -0.024.
As to CAGTCTC, the “uncleaved DNA left (log2)” value was -0.2.
CTGAAAT: the “uncleaved DNA left (log2)” value was -0.111.
To CAGGCAG belongs 0.0372; to CCTAACT, -0.0824; to GAGGCAG, 0.109.
To ACCTGAA belongs 0.0642.
With CTACGAG the figure was 0.127; with GATTTCT, 0.152; with TGGCAGC, -0.00255.
As for TCGCAAA, the “uncleaved DNA left (log2)” value is -0.106.
With TTAATAT the figure was -0.0421; with CTCTATA, 0.0149; with CTAAGGT, -0.037.
As for CCCTCGG, the “uncleaved DNA left (log2)” value is 0.135.
To CGGGGTG belongs 0.0616; to CCGACAA, 0.023; to TGAACCA, -0.043.
On to GAGCGTT, for which the “uncleaved DNA left (log2)” value was -0.101.
With CGAACGA the figure was -0.128; with TAACCAG, 0.0192; with AAAGCGC, -0.0651.
To GATCGCC belongs -0.19; to ACATCAG, 0.00229; to GCTCATA, 0.124.
To ATCACGA belongs -0.00447; to GTGGCGC, -0.0742.
Turning to CCCCTAG, the “uncleaved DNA left (log2)” value is -0.183.
With TAAACTT the figure was -3.65.
To ATGATGA belongs 0.0557; to CATAAGT, 0.128; to GGAATCA, 0.0454.
As for TGACTTA, the “uncleaved DNA left (log2)” value came out at 0.0554.
To GCTAGCT belongs -0.0732; to TCGCCTT, -0.132; to TATTGTT, -3.04.
To CCTACCG belongs -0.239.
With CACCAAC the figure was -0.162; with TATACAG, 0.0604; with ATCACTG, 0.000131.

(Values after the supplement of paper PMC7826260.)
